Experimental data published in the antibiotic and cytotoxicity screens of Wong et al. (2023).
Some of the results follow.

The compounds below were run on S. aureus RN4220 (assay: growth inhibition call (relative growth <= 0.2)). Conditions: 50 µM.

Growth inhibition call, inactive:
COc1cccc(S(=O)(=O)N2C[C@H](O)COC[C@H]3O[C@@H](CC(=O)N4CCOCC4)CC[C@@H]32)c1
C[C@H]1CN([C@@H](C)CO)C(=O)c2cccc(NC(=O)c3ccc(-c4nccs4)cc3)c2O[C@@H]1CN(C)C(=O)Nc1ccc(C(F)(F)F)cc1
C[C@@H]1CCCCO[C@@H](CN(C)C)[C@H](C)CN([C@@H](C)CO)C(=O)c2cc(NC(=O)Nc3cccc4ccccc34)ccc2O1
C[C@@H]1CCCCO[C@H](CN(C)Cc2ccc(C(F)(F)F)cc2)[C@H](C)CN([C@H](C)CO)C(=O)c2cc(NC(=O)C3CCCCC3)ccc2O1
C[C@@H]1CN([C@H](C)CO)C(=O)Cc2cc(NC(=O)Nc3ccccc3)ccc2O[C@H]1CN(C)Cc1ccc(C(=O)Nc2ccccc2N)cc1
COCCCOc1cc(C[C@@H](C[C@H](N)[C@@H](O)C[C@H](C(=O)NCC(C)(C)C(N)=O)C(C)C)C(C)C)ccc1OC
COc1ccc(CN(C)C[C@H]2OCCCC[C@@H](C)Oc3ccc(NC(=O)CCC(F)(F)F)cc3C(=O)N([C@H](C)CO)C[C@@H]2C)cc1
CN(C)CCCNC(=O)C[C@@H]1C=C[C@@H](NS(=O)(=O)c2ccccc2)[C@H](CO)O1
COc1ccc(NC(=O)N(C)C[C@H]2OCc3cn(nn3)CCCC(=O)N([C@H](C)CO)C[C@H]2C)c(OC)c1
COc1ccc(S(=O)(=O)N(C)C[C@@H]2Oc3ccc(NC(=O)Nc4c(C)noc4C)cc3C(=O)N([C@@H](C)CO)C[C@H]2C)cc1
O=C(C[C@H]1C=C[C@@H](NC(=O)Cc2ccccn2)[C@H](CO)O1)NCCCN1CCOCC1
CC(/C=C/C(=O)NO)=C\c1ccccc1OCc1cn(-c2cccc(N(S(=O)(=O)c3ccc(C)cc3)S(=O)(=O)c3ccc(C)cc3)c2)nn1
CC1(C)O[C@@]2(C)CC[C@@H]1C[C@@H]2O[C@H]1O[C@@H](CO)[C@@H](O)[C@@H](O)[C@@H]1O
C[C@@H]1CN([C@@H](C)CO)C(=O)c2cccc(NC(=O)Nc3ccc(F)cc3)c2O[C@@H]1CN(C)CC1CCCCC1
C[C@H](CO)N1C[C@H](C)[C@H](CN(C)CC2CC2)OCCCC[C@H](C)Oc2ccc(NC(=O)Nc3cccc4ccccc34)cc2C1=O
COc1ccccc1S(=O)(=O)N(C)C[C@H]1OCc2cn(nn2)CCCC(=O)N([C@@H](C)CO)C[C@@H]1C
C[C@H](CO)N1C[C@H](C)[C@H](CN(C)Cc2ccc(C(F)(F)F)cc2)Oc2ccc(NC(=O)Cc3ccccc3)cc2C1=O
CC(C)NC(=O)Nc1ccc2c(c1)C(=O)N([C@H](C)CO)C[C@H](C)[C@@H](CN(C)C(=O)Nc1ccc(C(F)(F)F)cc1)OCCCC[C@H](C)O2
Cc1noc(C)c1S(=O)(=O)N(C)C[C@@H]1Oc2ccc(NC(=O)CCC(F)(F)F)cc2CC(=O)N([C@H](C)CO)C[C@@H]1C
CC(C)NC(=O)N(C)C[C@@H]1Oc2ccc(NC(=O)CCCN(C)C)cc2C(=O)N([C@@H](C)CO)C[C@H]1C
C[C@@H]1CN([C@H](C)CO)C(=O)c2cccc(NC(=O)Nc3ccccc3)c2O[C@@H]1CN(C)Cc1ccc(Cl)c(Cl)c1
COc1ccc(S(=O)(=O)Nc2ccc3c(c2)CC(=O)N([C@@H](C)CO)C[C@H](C)[C@H](CN(C)C(=O)Nc2c(C)noc2C)O3)cc1
C[C@H](CO)N1C[C@H](C)[C@@H](CN(C)Cc2ccccn2)Oc2ncc(C#Cc3ccc(F)cc3)cc2C1=O
CCc1c(C)[nH]c2c(C#N)cnn2c1=O
C[C@@H]1CN([C@@H](C)CO)C(=O)c2cc(NC(=O)Nc3ccc4c(c3)OCO4)ccc2O[C@@H]1CN(C)S(=O)(=O)c1cn(C)cn1
COc1ccc(S(=O)(=O)N(C)C[C@H]2OCc3cn(nn3)CCCC(=O)N([C@@H](C)CO)C[C@@H]2C)cc1
C[C@H]1CCCCO[C@H](CN(C)C(=O)Cc2ccccc2)[C@@H](C)CN([C@@H](C)CO)C(=O)c2cc(NS(=O)(=O)c3ccc(F)cc3)ccc2O1
CNC[C@@H]1OCCCC[C@@H](C)Oc2ccc(NS(=O)(=O)c3c(C)noc3C)cc2C(=O)N([C@H](C)CO)C[C@@H]1C
C[C@@H]1COC(=O)[C@H](Cc2ccc(F)cc2)CC=CC[C@@H](CC(=O)N(CCO)Cc2ccccc2)C(=O)N1
C[C@H]1CN([C@@H](C)CO)C(=O)CCCn2cc(nn2)CO[C@H]1CN(C)C(=O)Nc1cccc2ccccc12
O=C1O[C@H](c2ccccc2)[C@H](c2ccccc2)N2[C@H]1[C@@H](C(=O)N1CCCCCCC1)[C@]1(C(=O)Nc3ccccc31)[C@H]2c1ccc(O)cc1
Cc1ccccc1S(=O)(=O)N1C[C@@H](O)COC[C@@H]2O[C@H](CC(=O)NCCc3ccncc3)CC[C@H]21
CCO[C@@H]1OC(=O)C[C@@H]1NC(=O)[C@@H]1CCCN1C(=O)[C@@H](NC(=O)c1ccc(N)c(Cl)c1)C(C)(C)C
O=S(=O)([O-])NC1CCCCC1.[Na+]
CO[C@H]1CN(C)C(=O)c2cc(NC(=O)Nc3cccc(F)c3)ccc2OC[C@@H](C)N(C(=O)Nc2c(C)noc2C)C[C@H]1C
C[C@@H]1CN([C@H](C)CO)C(=O)Cc2cc(NC(=O)Cc3cn(C)c4ccccc34)ccc2O[C@@H]1CN(C)S(=O)(=O)c1cn(C)cn1
C[C@@H]1CN([C@H](C)CO)C(=O)Cc2cc(NC(=O)Cn3cnnn3)ccc2O[C@@H]1CN(C)Cc1ccc(-c2ccccc2)cc1
C[C@H](CO)N1C[C@H](C)[C@@H](CN(C)C(=O)Nc2ccc3c(c2)OCO3)OCCCC[C@H](C)Oc2ccc(NC(=O)Nc3ccc(C(F)(F)F)cc3)cc2C1=O
C[C@H](CO)N1C[C@H](C)[C@H](CN(C)S(C)(=O)=O)Oc2ccc(NS(=O)(=O)c3ccc(Cl)cc3)cc2CC1=O
C[C@@H]1CN([C@H](C)CO)C(=O)c2cccc(NS(=O)(=O)c3cn(C)cn3)c2O[C@H]1CN(C)Cc1ccncc1
